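Dose response: 5 concentrations. Exposure: 48 h. Format: 96-well plates. Endpoint: linear interpolation; highest concentration if not reached. GI50 = concentration required for 50% inhibition of growth. The concentration for full growth arrest is given as TGI.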

This assay concerns NCI-H322M lung. The assay can be described thus: NCI tumour cell line growth inhibition, 48 h.
With `COc1ccc2c(c1)CC1COc3cc(OC)ccc3C1O2` (configuration not stated), the TGI is above 100 µM. Same read-out and setting: for `COC1=N[C@H](C(C)C)C(OC)=N[C@H]1Cc1ccc(C[C@@H]2N=C(OC)[C@@H](C(C)C)N=C2OC)s1` the value was above 100 µM.

`O=C1CNC(=O)/C(=C/c2c[nH]c3ccccc23)N1` gave a TGI above 100 µM. In the case of `N#Cc1cnc2cc(OC[C@@H](O)CO)c(NC(=O)C3CCCC3)cc2c1Nc1ccc(OCc2cccc(F)c2)c(Cl)c1`, the GI50 was 2.32 µM and the TGI is 19.3 µM. `Cc1ccc(/C=C/C(=N/NC(=O)N/N=C(/C=C/c2ccc(C)cc2)C(C)C)C(C)C)cc1` registered a TGI above 10 µM. As to `NC(=O)CN1CC(C2=C(O)CN(CC(N)=O)C2=O)=CC1=O`, the TGI was above 100 µM. `COCCOC(=O)NCn1cc(-c2ccccc2)nn1` displayed a TGI above 100 µM. Take `Cc1c(O)c(OC2OC(CO)C(O)C(O)C2O)cc2c1CC[C@@H]1C2(C)C(=O)C[C@]2(C)[C@@H]([C@@](C)(O)C3CCC(C)(C)O3)[C@H](O)C[C@@]12C` (some centres not stated): the TGI was above 100 µM.

In turn, `O=[N+]([O-])c1ccc(-n2nc3ccc4c(no[n+]4[O-])c3[n+]2[O-])c([N+](=O)[O-])c1` came in with a TGI of 7.91 µM. Turning to `CC1=C(/C=C/C(=O)CC(=O)/C=C/C2=C(C)CCCC2(C)C)C(C)(C)CCC1`, the GI50 is 34.2 µM and the TGI is above 100 µM. On to `CC(C)=NNc1snnc1C(N)=O`, for which the TGI is above 100 µM. For `N#CC1=C(N)NC(=S)NC1c1ccc(-c2ccc(-c3nc4ccccc4o3)cc2)s1` (configuration not stated), the GI50 is 12.6 µM and the TGI was 38.2 µM. `O=C1CC[C@H](N2Cc3c(OCc4ccc(CN5CCOCC5)cc4)cccc3C2=O)C(=O)N1`: the GI50 was above 100 µM and the TGI is above 100 µM.

For the molecule `CCCCCCCCCCCCCCCCCCNCc1ccc(Cl)cc1`, the GI50 is 3.11 µM and the TGI came out at 15.2 µM.

Turning to `CC(=O)NC1C(OC(C)C(=O)NC(C(=O)NC(CCC(=O)NCCCNC2c3ccccc3Nc3cccc([N+](=O)[O-])c32)C(N)=O)C(C)C)C(O)C(CO)OC1(C)OCc1ccccc1` (configuration not stated), the TGI stood at 4.83 µM. For `COc1ccc(C(=O)O[C@H]2CC[C@@]3(C)[C@@H]4CC[C@H]5[C@]6(O)C[C@H](O)[C@@]7(O)[C@@H](CN8C[C@@H](C)CC[C@H]8[C@@]7(C)O)[C@]6(O)C[C@@]53OC24O)cc1OC`, the TGI is above 100 µM. Still for that read-out and setting: with `C[N+](C)(C)CC1CCC(C[N+](C)(C)C)C1=O` (configuration not stated) the figure was 30.8 µM. As to `O=C(Nc1cccc(-n2cc(-c3ccncc3)c(-c3ccc(O)c(Cl)c3)n2)c1)c1ccc2c(c1)OCCO2`, the GI50 is above 100 µM and the TGI was above 100 µM. `CN(C)C1(N(C)C)Oc2c(c(=O)n(C)c(=O)n2C)C(c2ccc(C(F)(F)F)cc2)C1(F)F` (configuration not stated): the TGI was above 100 µM.

In the case of `Nc1nonc1-c1nc2ccccc2n1Cc1ccc(F)cc1`, the GI50 is 57.8 µM and the TGI was above 100 µM. In turn, `O=C1c2c(Br)sc(Br)c2[C@@H](Cl)[C@H]1Cl` had a TGI of 39.3 µM. The same measure, in the same setting: for `CC1=C(C(=O)NCc2ccccc2)C(c2ccc(Cl)c(Cl)c2)C(C(=O)NCc2ccccc2)=C(C)N1` the value was above 100 µM. Take `C=C1c2ccccc2C(=O)c2c1c1c(C(=O)OC)c(OC(=O)OCc3ccc([N+](=O)[O-])cc3)ccc1n2Cc1ccccc1`: the GI50 is 50.8 µM and the TGI is above 100 µM.

As to `CCC1C(C)C=NN1c1nc(N)nc(C(C#N)=Nc2ccc(N(C)C)cc2)n1` (configuration not stated), the GI50 is 13.4 µM and the TGI came to 30.5 µM. For `Cc1ccc(Nc2cc(Cl)c([N+](=O)[O-])cc2[N+](=O)[O-])cc1`, in that order: 5.49 µM and 10.4 µM.

With `CO/N=C(/C)c1cccc(Nc2nc3ccc(Cl)cc3c3[nH]c4ccccc4c23)c1`, the TGI was found to be 8.44 µM. Turning to `COc1cc(-n2cc(-c3ccccc3)[nH]c2=O)cc(OC)c1OC`, the GI50 is 75.8 µM and the TGI is above 100 µM. Turning to `CNC(=O)N(CCC#N)CCN(C(=O)N(C)C)c1ccccc1`, the TGI is above 100 µM. As to `CCN(CC)Cc1ccccc1CC(=O)N1c2ccccc2C(=O)Nc2cccnc21`, the TGI is above 100 µM. `CCOC(=O)/C(=C\NC(C)(C)C)c1nc2ccccc2[nH]1` came in with a TGI of 54.5 µM. On to `COC(=O)c1cccc2c3ccccc3c3ccccc3c12`, for which the TGI is above 100 µM. `Cc1c(O)c(OC2OC(CO)C(O)C(O)C2O)cc2c1C=C[C@@H]1[C@@]2(C)C(=O)C[C@]2(C)[C@@H]([C@@](C)(O)C(O)/C=C/C(C)(C)O)[C@H](O)C[C@@]12C` (some centres not stated) had a TGI above 100 µM. For the molecule `CCOc1ccccc1NC(=O)C(=O)C(/C(=N/N)C(=O)OC)c1nc2ccc([N+](=O)[O-])cc2[nH]c1=O` (configuration not stated), the TGI is above 100 µM.

Take `CCOC(=O)C(C)Sc1nnc(COc2ccc(Cl)cc2)n1-c1ccccc1` (configuration not stated): the TGI stood at 91.3 µM. With `O=C1N2Cc3c4ccc5c3CN3C(=O)N6Cc7c(ccc(c7CN1C6(c1ccccc1)C23c1ccccc1)OCCOCCOc1cc(Br)c(Br)cc1OCCOCCO4)OCCOCCOc1cc(Br)c(Br)cc1OCCOCCO5` (configuration not stated), the TGI was above 100 µM. For `O=c1[nH]nc(-c2ccccc2)n1/N=C/c1ccco1`, the TGI is above 100 µM. Take `CC(C)(C)OC(=O)NCCCCn1c2c(c3ccccc3c1=O)C(=O)c1ccccc1-2`: the GI50 was 32.3 µM and the TGI worked out at 87.4 µM. Take `CC(C)(C)OC(=O)N1CC(CCl)c2ccc(O)cc21` (configuration not stated): the TGI was 6.29 µM. In the case of `Cc1csc(NNC(N)=O)n1`, the TGI was above 100 µM.

As to `CCCOc1cc2ccccc2cc1C(=O)Nc1nc(NC)c2c(ccc3nccc32)[nH]1`, the GI50 is 1.06 µM and the TGI worked out at 2.34 µM.

As for `C/C=C/C/C=C/[C@H](C)C[C@H](O)[C@@H]1C[C@@H]2O[C@H]2/C=C/[C@@H]2OC(C)(C)O[C@H]2/C=C/C[C@H](C)CC(=O)O1`, the GI50 is 17.9 µM and the TGI was above 100 µM. The molecule `CC1=NN(c2nc(N)nc(CSc3cc(Cl)c(C)cc3S(N)(=O)=O)n2)C(C)(C)C1` showed a TGI above 10 µM. Same read-out and setting: with `Cc1ccc(S(=O)(=O)N/N=C(\c2nc3ccc([N+](=O)[O-])cc3[nH]c2=O)C(O)c2ccc([N+](=O)[O-])cc2)cc1` (configuration not stated) the figure was above 100 µM; with `O=C(O)C1OC1C(=O)O` (configuration not stated), above 100 µM; with `N#Cc1c(C#N)c(-c2ccccc2)n(Cc2ccccc2)c1N`, above 100 µM.

Consider `Cc1cc(C)c2c(n1)S(=O)(=O)N(CCCN1CCN(c3cccc(Cl)c3)CC1)/C(=C(\O)c1ccccc1)C2=O`, for which the TGI is above 100 µM. Molecule `N#CCCN(CCC#N)c1ccc(C(N=Nc2ccc(Cl)cc2)=Nc2ccccc2)cc1` showed a TGI of 27.1 µM. On the same count and under the same terms, with `Cc1ccc(S(=O)(=O)NC(=O)Nc2cccc(S(N)(=O)=O)c2)cc1` the figure was above 100 µM. As to `C=C1CCCC(C)(C)[C@H]1C/C=C1\CCOC1=O`, the TGI is 30.8 µM.

Regarding `NC1C=NNC1=O` (configuration not stated), the TGI is above 100 µM.

Take `COC(=O)[C@H](Cc1ccccc1)NC(=O)N(CCC#N)CCCCN(CCC#N)C(=O)N[C@@H](Cc1ccccc1)C(=O)OC`: the TGI was above 100 µM.

In the case of `O=C(Nn1c(-c2cccs2)nc2ccc(I)cc2c1=O)c1ccccc1`, the TGI was found to be 83.7 µM.

On to `O=C(CC(O)(C(F)(F)F)C(F)(F)Cl)CC(O)(C(F)(F)F)C(F)(F)Cl` (configuration not stated), for which the TGI was above 10 µM. The same measure, in the same setting: with `N#Cc1cc2c(cc1C#N)/C(=N\c1cccc(N)n1)N=C2Nc1cccc(N)n1` the figure was above 100 µM. Take `Cc1cc(C(=O)Nc2n[nH]c3ccccc23)n[nH]1`: the GI50 is above 100 µM and the TGI was above 100 µM. For `N#Cc1ccc(-c2c(-c3ncn[nH]3)sc(N3CCOCC3)c2C#N)c(F)c1`, the GI50 was 0.362 µM and the TGI turned out to be 7.02 µM.

The record behind these values is PubChem BioAssay (NCI).
